Data taken from the supplement of paper PMC12217912.
Some of the results follow. Sequences were assembled here from the parent chain. Inactive controls read about 0.05.

B1: TEV protease; numbered along this chain (parent)
chain: MGESLFKGPRDYNPISSSICHLTNESDGHTTSLYGIGFGPFIITNKHLFRRNNGTLVVQSLHGVFKVKDTTTLQQHLVDGRDMIIIRMPKDFPPFPQKLKFREPQREERICLVTTNFQTKSMSSMVSDTSCTFPSGDGIFWKHWIQTKDGQCGSPLVSTRDGFIVGIHSASNFTNTNNYFTSVPKNFMELLTNQEAQQWVSGWRLNADSVLWGGHKVFMVKPEEPFQPVKEATQL

Variants of: B1
Assay: raw area under fraction-flipped curve 0-4 h after induction (AUC4h, not background-subtracted), DNA-recorder readout of cleavage of the substrate (dimensionless); higher = more cleavage of the substrate by the protease variant
Settings: temperature: 34 °C; time window: 0-4 h after rhamnose induction
Protocol: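 In vivo DNA recorder in E. coli TOP10(DE3) ΔrhaA at 34 °C. Each TEVp single-site mutant (parent TEVp 0) is paired with a single-site variant of the 7-mer TEVs (canonical ENLYFQ|S). The substrate sits between flexible linkers in a Bxb1-sfGFP-TEVs-SsrA fusion, so cleavage stabilises Bxb1 and speeds flipping of a recombination array, read by NGS. The value is the raw area under the fraction-flipped curve over 0-4 h after rhamnose induction (AUC4h), with ≥20 reads per time point. It is not background-subtracted; inactive controls average about 0.047.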
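Further: Bxb1 expression induced with 0.2% (w/v) L-rhamnose at OD600 near 0.5, cultures sampled hourly, flipped fraction per protease–substrate barcode pair counted by paired-end Illumina sequencing.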

Row | Variant | area with substrate ENLYFQA | area with substrate ENLYFQC | area with substrate ENLYFQD | area with substrate ENLYFQE | area with substrate ENLYFQG | area with substrate ENLYFQH | area with substrate ENLYFQI | area with substrate ENLYFQK | area with substrate ENLYFQL | area with substrate ENLYFQM | area with substrate ENLYFQN | area with substrate ENLYFQR | area with substrate ENLYFQS | area with substrate ENLYFQT | area with substrate ENLYFQV | area with substrate ENLYFQW | area with substrate ENLYFQY | area with substrate ENLYFQP | area with substrate ENLYFQQ | area with substrate ENLYFQF
1 | MGESLFKGPRDYNPISSSICHLTNESDGHTTSLYGIGFGPFIITNKHKFRRNNGTLVVQSLHGVFKVKDTTTLQQHLVDGRDMIIIRMPKDFPPFPQKLKFREPQREERICLVTTNFQTKSMSSMVSDTSCTFPSGDGIFWKHWIQTKDGQCGSPLVSTRDGFIVGIHSASNFTNTNNYFTSVPKNFMELLTNQEAQQWVSGWRLNADSVLWGGHKVFMVKPEEPFQPVKEATQL [L48K] | 0.0538 | 0.0643 | 0.0659 | 0.0785 | 0.0581 | 0.0757 | 0.0692 | 0.0603 | 0.0549 | 0.0571 | 0.0392 | 0.0595 | 0.0584 | 0.0604 | 0.055 | 0.0593 | 0.0632 |  |  | 
2 | MGESLFKGPRDYNPISSSICHLTNESDGHTTSLYGIGFGPFIITNKHVFRRNNGTLVVQSLHGVFKVKDTTTLQQHLVDGRDMIIIRMPKDFPPFPQKLKFREPQREERICLVTTNFQTKSMSSMVSDTSCTFPSGDGIFWKHWIQTKDGQCGSPLVSTRDGFIVGIHSASNFTNTNNYFTSVPKNFMELLTNQEAQQWVSGWRLNADSVLWGGHKVFMVKPEEPFQPVKEATQL [L48V] | 0.0629 | 0.0634 | 0.0834 |  |  | 0.0582 | 0.0615 | 0.0527 | 0.0653 | 0.0744 | 0.0579 | 0.0598 | 0.0692 | 0.0559 | 0.0687 |  |  | 0.0585 | 0.0909 | 
3 | MGESLFKGPRDYNPISSSICHLTNESDGHTTSLYGIGFGPFIITNKHMFRRNNGTLVVQSLHGVFKVKDTTTLQQHLVDGRDMIIIRMPKDFPPFPQKLKFREPQREERICLVTTNFQTKSMSSMVSDTSCTFPSGDGIFWKHWIQTKDGQCGSPLVSTRDGFIVGIHSASNFTNTNNYFTSVPKNFMELLTNQEAQQWVSGWRLNADSVLWGGHKVFMVKPEEPFQPVKEATQL [L48M] | 0.0834 | 0.0748 | 0.0721 |  | 0.0758 |  | 0.0548 | 0.0625 | 0.0613 | 0.0992 | 0.0729 | 0.0586 | 0.0902 | 0.0549 |  | 0.066 | 0.0703 | 0.0552 |  | 
4 | MGESLFKGPRDYNPISSSICHLTNESDGHTTSLYGIGFGPFIITNKHGFRRNNGTLVVQSLHGVFKVKDTTTLQQHLVDGRDMIIIRMPKDFPPFPQKLKFREPQREERICLVTTNFQTKSMSSMVSDTSCTFPSGDGIFWKHWIQTKDGQCGSPLVSTRDGFIVGIHSASNFTNTNNYFTSVPKNFMELLTNQEAQQWVSGWRLNADSVLWGGHKVFMVKPEEPFQPVKEATQL [L48G] | 0.0692 | 0.0666 | 0.0566 |  | 0.0698 | 0.0601 | 0.0722 | 0.061 | 0.056 | 0.0733 | 0.0575 | 0.0665 | 0.0729 | 0.0651 |  | 0.0568 | 0.0483 | 0.0633 | 0.0538 | 0.0954
5 | MGESLFKGPRDYNPISSSICHLTNESDGHTTSLYGIGFGPFIITNKHWFRRNNGTLVVQSLHGVFKVKDTTTLQQHLVDGRDMIIIRMPKDFPPFPQKLKFREPQREERICLVTTNFQTKSMSSMVSDTSCTFPSGDGIFWKHWIQTKDGQCGSPLVSTRDGFIVGIHSASNFTNTNNYFTSVPKNFMELLTNQEAQQWVSGWRLNADSVLWGGHKVFMVKPEEPFQPVKEATQL [L48W] | 0.061 | 0.0697 |  |  | 0.0591 | 0.0424 | 0.0608 | 0.0588 | 0.0569 | 0.0651 | 0.053 | 0.0564 | 0.0647 | 0.056 | 0.0701 | 0.0632 |  | 0.0626 | 0.0497 | 0.0684
6 | MGESLFKGPRDYNPISSSICHLTNESDGHTTSLYGIGFGPFIITNKHRFRRNNGTLVVQSLHGVFKVKDTTTLQQHLVDGRDMIIIRMPKDFPPFPQKLKFREPQREERICLVTTNFQTKSMSSMVSDTSCTFPSGDGIFWKHWIQTKDGQCGSPLVSTRDGFIVGIHSASNFTNTNNYFTSVPKNFMELLTNQEAQQWVSGWRLNADSVLWGGHKVFMVKPEEPFQPVKEATQL [L48R] | 0.0545 | 0.063 | 0.0652 | 0.0625 |  | 0.0564 | 0.0451 | 0.0656 | 0.058 | 0.0811 | 0.056 | 0.0601 | 0.0605 | 0.0631 | 0.0404 | 0.0456 | 0.0605 |  |  | 
7 | MGESLFKGPRDYNPISSSICHLTNESDGHTTSLYGIGFGPFIITNKHNFRRNNGTLVVQSLHGVFKVKDTTTLQQHLVDGRDMIIIRMPKDFPPFPQKLKFREPQREERICLVTTNFQTKSMSSMVSDTSCTFPSGDGIFWKHWIQTKDGQCGSPLVSTRDGFIVGIHSASNFTNTNNYFTSVPKNFMELLTNQEAQQWVSGWRLNADSVLWGGHKVFMVKPEEPFQPVKEATQL [L48N] | 0.0687 | 0.0486 |  | 0.0648 |  | 0.0576 | 0.0729 | 0.0615 | 0.0466 | 0.0519 | 0.0472 | 0.0614 | 0.0631 | 0.0701 | 0.0606 | 0.0589 |  | 0.0559 |  | 
8 | MGESLFKGPRDYNPISSSICHLTNESDGHTTSLYGIGFGPFIITNKHLFRRWNGTLVVQSLHGVFKVKDTTTLQQHLVDGRDMIIIRMPKDFPPFPQKLKFREPQREERICLVTTNFQTKSMSSMVSDTSCTFPSGDGIFWKHWIQTKDGQCGSPLVSTRDGFIVGIHSASNFTNTNNYFTSVPKNFMELLTNQEAQQWVSGWRLNADSVLWGGHKVFMVKPEEPFQPVKEATQL [N52W] | 0.0636 | 0.071 | 0.0582 |  | 0.0747 | 0.0691 | 0.0448 | 0.0597 | 0.0609 | 0.0482 | 0.0697 | 0.056 | 0.0707 | 0.0655 | 0.0492 | 0.0625 | 0.0529 | 0.0563 | 0.0597 | 0.0607
